# Assay results: US6528630B1 (priority 1997, dated 2003)
# What was measured:
# [1] = system: HEK 293 cells transiently transfected with pCMVβgal only; experiment: Whole-cell patch clamp of negative control HEK 293 cells (pCMVβgal only)
# Protocol: Individual transiently transfected HEK 293 cells were assayed for the presence of voltage-dependent barium currents using the whole-cell variant of the patch clamp technique [Hamill et al. (1981). Pflugers Arch. 391:85-100]. HEK 293 cells transiently transfected with pCMVβgal only were assayed for barium currents as a negative control in these experiments. The cells were placed in a bathing solution that contained barium ions to serve as the current carrier. Choline chloride, instead of NaCl or KCl, was used as the major salt component of the bath solution to eliminate currents through sodium and potassium channels. The bathing solution contained 1 mM MgCl2 and was buffered at pH 7.3 with 10 mM HEPES (pH adjusted with sodium or tetraethylammonium hydroxide). […] Currents were measured through a 500 megohm headstage resistor with the Axopatch IC (Axon Instruments, Foster City, Calif.) amplifier, interfaced with a Labmaster (Scientific Solutions, Solon, Ohio.) data acquisition board in an IBM-compatible PC. […] Data were analyzed with pClamp or Quattro Professional (Borland International, Scotts Valley, Calif.) programs. […]
# Twenty-one negative control HEK 293 cells (transiently transfected with the lacZ gene expression vector pCMVβgal only) were analyzed by the whole-cell variant of the patch clamp method for recording currents.
# [2] = target: human neuronal calcium channel α1D and α2 subunits (Homo sapiens, UniProt Q01668); experiment: Two-electrode voltage clamp of Xenopus oöcytes injected with α1D and α2 transcripts; details: very small Ba2+ currents (15-30 nA)
# [3] = target: T1, human neuronal calcium channel α1D subunit (Homo sapiens, UniProt Q01668)
# T1 construct: The full-length α1D cDNA from pVDCCIII(A); expressed in transfected cells; host or cells: HEK 293 (transient)
# Text: Expression vectors pVDCCIII(A), pHBCaCHα2A and pHBCaCHβ1aRBS(A) were used in two sets of transient transfections of HEK 293 cells (ATCC Accession No. CRL1573). In one transfection procedure, HEK 293 cells were transiently cotransfected with the α1 subunit cDNA expression plasmid, the α2 subunit cDNA expression plasmid, the β1 subunit cDNA expression plasmid and plasmid pCMVβgal (Clontech Laboratories, Palo Alto, Calif.). Plasmid pCMVβgal contains the lacZ gene (encoding E. coli β-galactosidase) fused to the cytomegalovirus (CMV) promoter and was included in this transfection as a marker gene for monitoring the efficiency of transfection. […] The transfectants were analyzed for β-galactosidase expression by direct staining of the product of a reaction involving β-galactosidase and the X-gal substrate [Jones, J. R. (1986) EMBO 5:3133-3142] and by measurement of β-galactosidase activity [Miller, J. H. (1972) Experiments in Molecular Genetics, pp.352-355, Cold Spring Harbor Press]. To evaluate subunit cDNA expression in these transfectants, the cells were analyzed for subunit transcript production (northern analysis), subunit protein production (immunoblot analysis of cell lysates) and functional calcium channel expression (electrophysiological analysis). […]
# T1 sequence (Q01668 whole entry): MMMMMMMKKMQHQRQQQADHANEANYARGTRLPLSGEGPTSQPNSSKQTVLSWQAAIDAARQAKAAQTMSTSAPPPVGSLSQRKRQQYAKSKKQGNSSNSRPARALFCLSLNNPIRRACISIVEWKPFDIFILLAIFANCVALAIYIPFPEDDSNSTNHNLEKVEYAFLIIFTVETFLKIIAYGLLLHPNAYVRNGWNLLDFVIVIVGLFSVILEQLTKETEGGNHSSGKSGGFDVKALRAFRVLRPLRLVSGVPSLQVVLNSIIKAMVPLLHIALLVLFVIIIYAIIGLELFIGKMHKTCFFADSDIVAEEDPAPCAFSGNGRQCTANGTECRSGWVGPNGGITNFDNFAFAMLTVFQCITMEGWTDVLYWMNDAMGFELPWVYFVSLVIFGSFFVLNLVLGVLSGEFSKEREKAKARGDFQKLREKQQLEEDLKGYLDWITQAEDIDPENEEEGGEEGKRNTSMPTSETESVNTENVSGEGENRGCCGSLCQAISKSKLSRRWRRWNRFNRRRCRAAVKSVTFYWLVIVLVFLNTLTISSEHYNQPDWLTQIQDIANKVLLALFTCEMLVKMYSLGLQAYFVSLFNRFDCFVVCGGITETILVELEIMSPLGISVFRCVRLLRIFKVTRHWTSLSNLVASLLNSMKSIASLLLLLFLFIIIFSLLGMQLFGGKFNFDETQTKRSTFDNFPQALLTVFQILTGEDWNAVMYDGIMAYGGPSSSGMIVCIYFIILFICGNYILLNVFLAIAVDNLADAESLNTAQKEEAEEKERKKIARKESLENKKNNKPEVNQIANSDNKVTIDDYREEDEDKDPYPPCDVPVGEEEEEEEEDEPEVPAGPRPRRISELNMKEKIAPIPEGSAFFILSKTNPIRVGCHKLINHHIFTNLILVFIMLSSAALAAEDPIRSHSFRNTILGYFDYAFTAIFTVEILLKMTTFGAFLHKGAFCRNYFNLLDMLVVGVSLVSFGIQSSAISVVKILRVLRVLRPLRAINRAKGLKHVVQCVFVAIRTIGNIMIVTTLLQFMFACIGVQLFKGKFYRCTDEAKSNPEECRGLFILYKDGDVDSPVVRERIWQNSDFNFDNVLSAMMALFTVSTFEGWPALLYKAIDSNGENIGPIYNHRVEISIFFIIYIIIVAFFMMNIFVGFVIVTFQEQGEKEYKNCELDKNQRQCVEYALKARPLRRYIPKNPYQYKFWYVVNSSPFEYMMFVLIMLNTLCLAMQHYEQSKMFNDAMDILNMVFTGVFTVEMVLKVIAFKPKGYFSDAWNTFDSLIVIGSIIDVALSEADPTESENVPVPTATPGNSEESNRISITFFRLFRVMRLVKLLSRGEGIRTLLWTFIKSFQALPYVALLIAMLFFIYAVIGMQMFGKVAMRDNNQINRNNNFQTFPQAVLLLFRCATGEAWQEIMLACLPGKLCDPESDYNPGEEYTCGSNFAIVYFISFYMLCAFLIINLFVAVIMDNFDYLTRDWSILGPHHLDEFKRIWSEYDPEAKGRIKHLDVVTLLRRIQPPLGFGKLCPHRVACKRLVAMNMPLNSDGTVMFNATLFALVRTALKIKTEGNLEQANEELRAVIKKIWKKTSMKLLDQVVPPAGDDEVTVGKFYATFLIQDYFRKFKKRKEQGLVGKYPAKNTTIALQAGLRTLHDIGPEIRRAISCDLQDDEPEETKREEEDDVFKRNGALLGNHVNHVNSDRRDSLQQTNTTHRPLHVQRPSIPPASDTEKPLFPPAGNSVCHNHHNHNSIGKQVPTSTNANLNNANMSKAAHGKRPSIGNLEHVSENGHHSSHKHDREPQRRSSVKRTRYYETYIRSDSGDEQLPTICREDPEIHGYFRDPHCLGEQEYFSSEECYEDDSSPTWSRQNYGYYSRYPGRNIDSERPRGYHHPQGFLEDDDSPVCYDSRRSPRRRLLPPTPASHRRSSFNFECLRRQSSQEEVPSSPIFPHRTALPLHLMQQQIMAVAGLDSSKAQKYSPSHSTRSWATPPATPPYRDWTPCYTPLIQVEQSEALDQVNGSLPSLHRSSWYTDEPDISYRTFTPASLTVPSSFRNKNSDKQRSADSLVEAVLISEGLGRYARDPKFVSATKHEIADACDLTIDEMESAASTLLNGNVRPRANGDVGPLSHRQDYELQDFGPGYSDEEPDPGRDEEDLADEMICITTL
compound,measurement,setting,value
COC(=O)C1=C(C)NC(C)=C([N+](=O)[O-])C1c1ccccc1C(F)(F)F (centres unmarked) [Bay K 8644],effect on discernable inward barium current,"[1]; 1 μM Bay K 8644, one cell",not affected
same,appearance of currents in cells that did not display Ba2+ currents,"[1]; Bay K 8644, four cells",did not result in the appearance of any currents
same,response of barium currents to Bay K 8644,[2],little or no response
same,amplification of inward barium current,"[3]; 1 μM Bay K 8644, 30 pA current",2 fold
same,tail currents,[3]; in the presence of Bay K 8644,small tail currents were detected
